Source: PubChem BioAssay AID1508624 (National Center for Advancing Translational Sciences (NCATS), 2021)
Screen size: about 48,000 compounds; about 120 (0.25%) were called active. Roughly 4% stayed inconclusive and do not appear here. Calls come from the whole dose curve; as a rule, active = well fitted activation curve with a large enough effect; inconclusive = small, poorly fitted or top-dose-only effect, or another doubt; inactive = no such curve, though single readings can be large or run the other way. Some of the results follow.

Assay: Primary qHTS for Identification of Small Molecule Activators of Huntingtin-Antisense Promoter Activity; note: nearly all actives have a fitted effect of over 55% in size
Conditions: HEK293 HTT-AS promoter firefly luciferase reporter, 24 h; series mostly up to 57.5 µM; activity change, positive = activation: at the top concentration
Outline: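 HEK293 Fluc reporter, 2,500 cells/well, 24 h pre-culture; cpds up to 57.5 uM final, 24 h 37 degrees C; Dual-Glo, 10 min RT; normalized vehicle = 0%, zero RLU = -100%.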

| SMILES | activity change, positive = activation |
| --- | --- |
| O=C(NCCO[N+](=O)[O-])c1cccnc1 | inactive |
| Cc1c(NC(=O)Cc2ccc(Cl)cc2)cccc1-c1nc2cccnc2s1 | inactive: -9.5% |
| CCOC(=O)c1c(C)[nH]c(C)c1S(=O)(=O)NCC(=O)Nc1cccc(Cl)c1 | inactive: 0.0687% |
| Cc1cccc(CNC(=O)Cn2nc(C)c3nn(-c4ccc(Cl)cc4)c(C)c3c2=O)c1 | inactive: -22.8% |
| Cc1c(CNC2CCCCCC2)c(C(=O)O)c(C)n1Cc1cccc(Cl)c1 | inactive: -10% |
| Cc1ccc(Cl)c(Nc2ccccc2C(=O)O)c1Cl | inactive: -9.21% |
| O=C(CSc1nc(Nc2ccccc2)c2ccccc2n1)c1ccc(Cl)cc1 | inactive: -41.5% |
| Cc1cc(C)cc(NC(=O)NCc2c(-n3cccc3)sc3c2CCCC3)c1 | inactive: -14.1% |
| CCOC(=O)c1ccc(N2C(=O)c3n[nH]c(-c4ccco4)c3C2c2ccccc2OC)cc1 (stereo not drawn) | inactive: -63.5% |
| COc1ccc(N(C)S(=O)(=O)c2ccc3c(c2)CCN3C(=O)CCC(=O)O)cc1 | inactive: -23.5% |
| Cc1ccc(NC(=O)Cn2c(=O)n(Cc3ccccc3)c(=O)c3c(C)c(C(=O)N(C)C)sc32)c(C)c1 | inactive: -15.1% |
| COc1ccc(NC(=O)c2ccco2)cc1NC(=O)c1ccccc1[N+](=O)[O-] | inactive: -5.83% |
| CCN1CCN(C(=O)N[C@@H](C(=O)N[C@@H]2C(=O)N3C(C(=O)O)=C(CSc4nnnn4C)CS[C@H]23)c2ccc(O)cc2)C(=O)C1=O | inactive: -1.97% |
| CC(C)(Cc1ccc2ccccc2c1)NC[C@@H](O)COc1cccc(Cl)c1C#N | inactive: 4.26% |
| O=C1Nc2ccc(I)cc2C1=Cc1cc(Br)c(O)c(Br)c1 | inactive: 1.03% |
| CCc1cccc(C)c1Nc1nn2c(=O)c3ccccc3nc2s1 | inactive: -4.66% |
| COc1cc(C2C=C(C(=O)O)Nc3ncnn32)ccc1O (stereo not drawn) | inactive: 2.6% |
| CCOc1ccc2c(c1)c(=O)c(C(=O)c1ccc(CC)cc1)cn2CC(=O)Nc1ccc2c(c1)OCCO2 | inactive: -7.77% |
| COc1cccc(NC(=O)Cn2c(=O)n(CCC(=O)NCc3ccccc3OC)c(=O)c3ccccc32)c1 | inactive: -12.2% |
| COc1ccc(Cl)cc1NC(=O)Cn1c(=O)n2nc(-c3ccccc3)nc2c2ccccc21 | inactive: -15.9% |
| COc1ccc(C)c2sc(N(Cc3cccnc3)C(=O)c3cccs3)nc12 | inactive: -22.2% |
| Cc1ccc(NC(=O)Cn2cc3c(n2)CCCC3)cc1Cl | inactive: -9.88% |
| CCN1CCc2c(sc(-n3cccc3)c2C(C)NC(=O)Nc2ccc(C(=O)OC)cc2)C1 (stereo not drawn) | inactive: -4.28% |
| COc1ccc(CNS(=O)(=O)c2ccc(-c3cc(C(F)(F)F)on3)s2)cc1OC | inactive: -63.7% |

| SMILES | activity change, positive = activation |
| --- | --- |
| COc1ccc(CNC(=O)c2nn(C)c3c2CSc2ccccc2-3)cc1 | inactive: -4.43% |
| COc1ccc(-c2csc(-c3c(N)c(C(=O)c4ccc(OC)c(OC)c4)n4ccccc34)n2)cc1 | inactive: 7.61% |
| O=C(Nc1cccc(F)c1)c1cnc2sc(N3CCCC3)nn2c1=O | inactive: -21.1% |
| COc1cccc(NS(=O)(=O)c2ccc3[nH]cc(C(=O)NC(C)c4ccccc4)c(=O)c3c2)c1 (stereo not drawn) | inactive: -26.2% |
| CCOC(=O)C1CCN(Cc2cn3c(-c4ccc(OC)cc4)nnc3s2)CC1 | inactive: -17.6% |
| Cc1cccc(NC(=O)c2cn(-c3ccccc3)nc2-c2ccccc2)c1C | inactive: -45.6% |
| Cc1ccccc1CN1CCCN(CC(=O)Nc2ccc(F)cc2)S1(=O)=O | inactive: -20.3% |
| Cc1cc(Nc2ncnc3ccc(-c4ccc(CNCCS(C)(=O)=O)o4)cc23)ccc1Oc1ccn2ncnc2c1 | inactive: -43.8% |
| Cc1ccc(NC(=O)Cn2c(=O)n(Cc3ccc4c(c3)OCO4)c(=O)c3oc4ccccc4c32)cc1C | inactive: -15% |
| CCOC(=O)c1c(C)oc2nc(C)nc(NCCc3ccc(Cl)cc3)c12 | inactive: -18.9% |
| CC(C)c1ccc(NC(=O)Cn2nnc(C(=O)NCc3ccc4c(c3)OCO4)c2N)cc1 | inactive: 1.15% |
| CO[C@@]12[C@H](COC(N)=O)C3=C(C(=O)C(C)=C(N)C3=O)N1C[C@@H]1N[C@@H]12 | inactive |
| Cc1ccc(/C=C/C(=O)Nc2ccc3nc(N4CCC(C)CC4)cc(C)c3c2)cc1 | inactive: -8.43% |
| Cc1cc(N2CCC(C(=O)Nc3ccc(F)cc3F)CC2)n2nc(C)c(-c3ccc(Cl)cc3)c2n1 | inactive: -4.9% |
| CCOc1ccc(C(=O)Nc2ccc3nc(N(CC)CC)cc(C)c3c2)cc1 | inactive: -38.8% |
| Cn1c(=O)oc2cc(S(=O)(=O)NC(Cc3ccccc3)C(=O)Nc3ccc(F)c(Cl)c3)ccc21 (stereo not drawn) | inactive: 8.18% |
| COc1cc(-c2cc(OC)c3c(C)oc(C)c3c(=O)c2)ccc1OC(=O)c1cccc(C)c1 | inactive: -15.9% |
| Cc1nn(S(=O)(=O)c2ccc(F)cc2)c(C)c1S(=O)(=O)N1CCCCCC1 | inactive: -11.6% |
| Cc1ccc(CNC(=O)c2ccc3c(c2)c(C)c(C)n3Cc2ccc(Cl)cc2)o1 | inactive: -25.5% |
| CC(NN)c1ccccc1 (stereo not drawn) | inactive: -6.13% [at 25.1 µM, percent change from vehicle, -100% = no light] |
| Cc1ccc(-c2noc(-c3ccc(N4CCCC4)c([N+](=O)[O-])c3)n2)cc1 | inactive: -59.2% |
| CCCc1cc(=O)[nH]c(SCc2nc(-c3ccc(OCC)cc3)no2)n1 | inactive: -12.8% |
| Cc1c(-c2ccccc2)c(=O)oc2c(CN3CCOCC3)c(O)ccc12 | inactive: -1.82% |
| Cc1ccc(C2C=C(c3ccccc3)Nc3nc(NS(C)(=O)=O)nn32)cc1 (stereo not drawn) | inactive: -6.37% |

| SMILES | activity change, positive = activation |
| --- | --- |
| CCc1cccc(C)c1NC(=O)CSc1nc2ccncc2[nH]1 | inactive: -25.9% |
| COc1ccc(NC(=O)C2CCN(c3cc(C)nc4c(-c5ccc(Cl)cc5)c(C)nn34)CC2)cc1 | inactive: -11.3% |
| CCOc1ccc(C2C(C(=O)Nc3ccc(OC)cc3)=C(C)Nc3nc(CCCO)nn32)cc1 (stereo not drawn) | inactive: -9.98% |
| COc1ccc(CCNS(=O)(=O)c2c(C)nc3sc(C)cn3c2=O)cc1OC | inactive: -6.84% |
| Cc1cc(Nc2cccc(C(=O)O)c2)n2nc(C)nc2n1 | inactive: -8.1% |
| CCCn1c2ccccc2c2cnn(CC(=O)NCCN(CC)CC)c(=O)c21 | inactive: -10.7% |
| COc1ccc(CCNC(=O)c2ccc3c(c2)N=C(C)c2ccccc2S3)cc1OC | inactive: -33.5% |
| COc1ccc(-c2nc3ccccc3o2)cc1NC(=O)c1cccnc1 | inactive: 8.55% |
| Cc1cccc(NC(=O)CN(C)S(=O)(=O)c2ccc3c(c2)c(=O)n(C)c(=O)n3C)c1C | inactive: -0.33% |
| CCOc1c(Cl)cc(CNc2ccc3[nH]c(=O)[nH]c3c2)cc1OC | inactive: -41.1% |
| CCN(CC)CCCNC(=O)c1ccc2c(c1)sc1nc(-c3ccc(C)cc3)cn12 | inactive: -15.9% |
| COc1ccc(NC(=O)NC(C)c2c(-n3cccc3)sc(C)c2C)cc1OC (stereo not drawn) | inactive: -31.2% |
| CCCCOc1ccc(C(=O)Nc2cc(-c3cn4cccnc4n3)ccc2OC)cc1 | inactive: -11.9% |
| CCN(c1cccc(C)c1)S(=O)(=O)c1cc2c(cc1C)n(C)c(=O)c(=O)n2C | inactive: -11.1% |
| CCOc1cccc2sc(NC(=O)c3ccc(S(=O)(=O)N4CCCCC4C)cc3)nc12 (stereo not drawn) | inactive: -33.7% |
| O=C(c1cc(-c2ccc(Cl)cc2)n[nH]1)N1CCN(S(=O)(=O)c2ccc(Br)s2)CC1 | inactive: -35.6% |
| CCOC(=O)c1c(C)[nH]c(C)c1S(=O)(=O)N1CCN(c2cc(Cl)ccc2C)CC1 | inactive: -40.8% |
| Clc1ccccc1Cn1c(-c2cccs2)nc2ccccc21 | inactive: -36.3% |
| CCOc1ccc(NC(=O)c2sc(-n3nc(C)c(Cc4ccc(Cl)cc4)c3C)nc2C)cc1 | inactive: -8.82% |
| Cc1nnc(NC(=O)c2nc(SC(C)C)ncc2Cl)s1 | inactive: 20% |
| CCc1cccc(NC(=O)c2ccc3c(c2)N(Cc2cccc(Cl)c2)C(=O)c2ccccc2S3=O)c1 (stereo not drawn) | inactive: -6.52% |
| CCOC(=O)c1c(-c2ccc(C)cc2)csc1NC(=O)c1cc(-c2ccc(OC)cc2)on1 | inactive: -4.76% |
| Cc1cccc(N(C)C(=O)CCS(=O)(=O)c2ccc3c(c2)n(C)c(=O)c(=O)n3C)c1 | inactive: -2.44% |
| COc1cc(NC(=O)Cn2c(=O)n(Cc3ccco3)c(=O)c3sc4ccccc4c32)cc(OC)c1 | inactive: 1.68% |

| SMILES | activity change, positive = activation |
| --- | --- |
| CCN(CC)C(=O)c1sc2c(c1C)c(=O)n(-c1ccc(Cl)c(Cl)c1)c(=O)n2Cc1ccccc1C#N | inactive: -25.5% |
| COCCCNc1oc(/C=C/c2cc(OC)c(OC)c(OC)c2)nc1C#N | inactive: -2.85% |
| Cc1ccc(N2CCN(C(=O)c3c(C)oc4ncn(CC(C)C)c(=O)c34)CC2)c(C)c1 | inactive: -5.61% |
| Cc1cccc(NC(=O)CSc2ncc3c(n2)-c2ccccc2N(Cc2ccc(F)cc2)S3(=O)=O)c1C | inactive: -6.34% |
| Cc1ccc(C)c(N2CCN(C(=O)C3CCN(c4nc5ccc(C)cc5[nH]4)CC3)CC2)c1 | inactive: -30.5% |
| Cc1cccc(CCNC(=O)c2ccc3c(c2)N(Cc2ccccc2F)C(=O)c2ccccc2S3)c1 | inactive: -17.7% |
| Cc1cc(-c2ccc(C)c(S(=O)(=O)N3CCN(c4cccc(C(F)(F)F)c4)CC3)c2)on1 | inactive: -21.7% |
| CN(C)c1ccc(-c2nc(-c3cc4cc(Cl)ccc4oc3=O)cs2)cc1 | inactive: -1.88% |
| CCc1cccc(NC(=O)CCC(=O)N2CCSc3ccccc32)c1 | inactive: -18.1% |
| Cc1ccc(Oc2c(C(F)(F)F)oc3c(CN4CCC(C)CC4)c(O)ccc3c2=O)cc1 | inactive: -9.12% |
| COc1ccc(-n2c(=O)c3c(c4cc(OC)ccc4n3C)n(Cc3cccc(OC)c3)c2=O)cc1 | inactive: -9.18% |
| O=C(CCC1N=C2c3ccccc3N=C(SCc3ccc(F)cc3)N2C1=O)NCc1ccc(F)cc1 (stereo not drawn) | inactive: -20.4% |
| O=C(CCc1nc(CN2CCN(S(=O)(=O)c3ccc(Cl)cc3)CC2)no1)N1CCCCC1 | inactive: -10.7% |
| CCc1cccc(C)c1NC(=O)Cn1ccn(-c2cccc(OC)c2)c(=O)c1=O | inactive: -2.06% |
| Cc1cccc(Cn2c(SCc3ccc(C(=O)NCCc4ccccc4)cc3)nc3ccncc32)c1 | inactive: -14.7% |
| Fc1cccc(-n2ncc3c2ncn2nc(COc4ccc(Cl)cc4)nc32)c1 | inactive: -3.71% |
| CCCC1=Nc2cc(C(=O)NCc3ccc(OC)cc3)ccc2Sc2ccc(C)cc21 | inactive: -26.3% |
| Cc1nc2scc(C)n2c(=O)c1S(=O)(=O)Nc1ccc(N2CCOCC2)c(Cl)c1 | inactive: -43.8% |
| CCC(C(=O)Nc1cc(OC)cc(OC)c1)n1nc(-c2ccc(C)c(C)c2)ccc1=O (stereo not drawn) | inactive: -28.5% |
| CCOc1ccc(C(=O)NCCn2cc(SCC(=O)Nc3ccc4c(c3)OCCO4)c3ccccc32)cc1 | inactive: -38.3% |
| CCOc1ccc(-c2nc(CSCC(=O)N3CCN(c4ccc(F)cc4)CC3)c(C)o2)cc1 | inactive: -6% |
